Test results published in PubChem BioAssay AID624417 (National Center for Advancing Translational Sciences (NCATS), 2012).
Among all 410,000 compounds or so, about 6,400 (1.6%) were called active. The inconclusive results got no clear call from the source; some entries with a clear call stand among them for comparison. Calls come from the whole dose curve; as a rule, active = well fitted inhibition curve with a large enough effect; inconclusive = small, poorly fitted or top-dose-only effect; inactive = no such curve, though single readings can be large or run the other way. Potencies of inconclusive entries are left out as doubtful fits.

molecular target: Glucagon-like peptide 1 receptor (Homo sapiens) (UniProt P43220); test: qHTS of GLP-1 Receptor Inverse Agonists (Inhibition Mode); conditions: HEK293 GLP-1R CRE-luciferase, luminescence, 24 h, GLP-1R form is constitutively active; activity change, negative = inhibition: at 38.3 µM (top of the series) unless noted; note: nearly all actives have a fitted effect of over 55% in size
Procedure, shortened: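 Seeding at 200 cells/uL, 12 h culture, 24 hr compound treatment, then luciferase reagent and a luminescence read; cells are HEK293 stably expressing a constitutively active GLP-1R plus cAMP-responsive luciferase.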
% is set by controls: 0 for no effect and ±100 for the full control effect; potency is the fitted concentration of half-maximal effect; tags give direction and shape of the fitted curve.

Chain of UniProt P43220 (P43220 whole entry, looked up): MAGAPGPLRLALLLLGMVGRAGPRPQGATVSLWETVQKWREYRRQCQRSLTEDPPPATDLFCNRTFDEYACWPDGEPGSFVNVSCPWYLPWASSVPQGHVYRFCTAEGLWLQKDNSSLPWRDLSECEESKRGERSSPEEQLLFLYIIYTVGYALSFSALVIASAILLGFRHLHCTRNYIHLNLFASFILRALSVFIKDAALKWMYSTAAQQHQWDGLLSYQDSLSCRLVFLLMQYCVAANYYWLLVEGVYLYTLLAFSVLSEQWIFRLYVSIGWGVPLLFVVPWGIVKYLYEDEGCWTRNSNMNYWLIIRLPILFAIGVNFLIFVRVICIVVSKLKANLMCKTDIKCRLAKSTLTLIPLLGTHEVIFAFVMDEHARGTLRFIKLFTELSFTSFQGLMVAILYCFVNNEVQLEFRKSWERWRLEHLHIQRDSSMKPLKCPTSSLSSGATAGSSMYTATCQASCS

**Q.** For `Cc1cc(C(F)(F)F)nc(SCC(=O)c2cccc([N+](=O)[O-])c2)n1`, which Potency is on record?
**A.** inconclusive [inhibitor, partial curve, poor fit]

**Q.** `CSc1nn(CC(=O)Nc2ccc(C)cc2C)c(N)c1S(=O)(=O)c1ccc(Cl)cc1` was tested. Which Potency did it give?
**A.** inconclusive [inhibitor, single point]

**Q.** How did the Potency turn out when `CCOC(=O)CN(C(=O)COC(=O)C1(c2ccccc2)CC1)c1ccc(F)cc1` was run?
**A.** inconclusive [inhibitor, partial curve, poor fit]

**Q.** Which “activity change, negative = inhibition” value does the source give for `CN1CCN(c2ccncc2S(=O)(=O)N2CCCC2)CC1` here?
**A.** inactive: 14%

**Q.** How did the Potency turn out when `Cc1nc(N2CCN(c3ccccc3O)CC2)c2c(-c3ccccc3)csc2n1` was run?
**A.** inconclusive [inhibitor, partial curve, poor fit]

**Q.** `Cc1c(C)n(C(=O)CN2CCC(C)CC2)c2ccccc12` was tested. Which “activity change, negative = inhibition” value did it give?
**A.** inactive: -26.8%

**Q.** How did the Potency turn out when `O=C(CNC(c1ccccc1)c1ccccc1)Nc1ccccc1Br` was run?
**A.** inconclusive [inhibitor, partial curve, poor fit]

**Q.** For `COc1c(Br)cc(/C=N/n2c(-c3ccccc3)n[nH]c2=S)c(O)c1Br`, which Potency is on record?
**A.** inconclusive [inhibitor, single point]

**Q.** How did the Potency turn out when `CC(C)n1cc(-c2ccc(Cl)cc2)cc(C#N)c1=O` was run?
**A.** inconclusive [inhibitor, single point]

**Q.** `COc1ccc2ccccc2c1CNC(C)c1ccccc1` (stereo not drawn) was tested. Which Potency did it give?
**A.** inconclusive [inhibitor, single point]

**Q.** With `O=C(CCCNC(=O)/C(=C/c1ccc(Br)cc1)NC(=O)c1ccccc1)OCc1ccccc1` as the compound, how does the Potency read?
**A.** inconclusive [inhibitor, partial curve]

**Q.** `CN(Cc1ccc(F)cc1)C(=O)CCc1nnc(-c2ccccc2)o1` was tested. Which “activity change, negative = inhibition” value did it give?
**A.** inactive: 19.2%

**Q.** With `CC(NC(=S)Nc1ccccc1Cl)C(c1cccs1)N1CCCC1` (stereo not drawn) as the compound, how does the Potency read?
**A.** inconclusive [inhibitor, single point]

**Q.** `CCC12CN3CC(CC)(CN(C1)C3c1c[nH]c3ccccc13)C2=O` (stereo not drawn) was tested. Which Potency did it give?
**A.** inconclusive [inhibitor, single point]

**Q.** How did the Potency turn out when `Cc1cc(OCC(O)CN2C(C)CCCC2C)ccc1C(C)C` (stereo not drawn) was run?
**A.** inconclusive [inhibitor, partial curve, poor fit]

**Q.** `CCc1ccc(NC(=O)C2(c3ccccc3)CC2(Cl)Cl)cc1` (stereo not drawn) was tested. Which Potency did it give?
**A.** inconclusive [inhibitor, single point]

**Q.** How did the Potency turn out when `Cc1nc2c(-c3ccccc3)c(C)nn2c(N)c1-c1ccccc1` was run?
**A.** inconclusive [inhibitor, partial curve, poor fit]

**Q.** Which Potency does the source give for `CCOC(=O)N1CCN(C(=O)C2CCN(Cc3cccc(OCc4ccccc4)c3)CC2)CC1` here?
**A.** inconclusive [inhibitor, partial curve, poor fit]
